This is an account of results in PMC7819943, “Rice protein-binding microarrays: a tool to detect cis-acting elements near promoter regions in rice”.

Some of the results follow.

The test deals with T1, OsWOX13 (Oryza sativa, UniProt Q5QMM3 1-267).
T1 sequence: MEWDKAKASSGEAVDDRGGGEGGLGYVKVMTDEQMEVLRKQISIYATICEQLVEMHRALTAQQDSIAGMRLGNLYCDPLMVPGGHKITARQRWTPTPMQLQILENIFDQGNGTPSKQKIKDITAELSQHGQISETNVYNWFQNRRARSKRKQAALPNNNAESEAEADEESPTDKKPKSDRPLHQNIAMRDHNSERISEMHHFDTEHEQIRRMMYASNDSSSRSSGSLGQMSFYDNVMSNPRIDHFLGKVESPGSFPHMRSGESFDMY
As to the kind of experiment: protein-binding microarray (RPBM); PBS, 2% BSA, 51.3 ng/ul salmon testes DNA, 50 uM zinc acetate, 200 nM TF, 25 C, 1 h; high values mean tight binding. The note with it: protein: recombinant; tags: N-terminal polyhistidine and DsRed monomer fusion (pET32a); label: CyDye5-dUTP incorporated in the synthesized complementary strand; 3' TTTTT single-stranded linker to array surface; dsDNA, one strand shown. In outline: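 The binding signal is fluorescence intensity per array feature (arbitrary units). Readings came from an Axon 4000B scanner after a washed, 2% BSA-blocked, double-stranded custom Agilent array had been incubated for 1 h at 25 °C with 200 nM protein and 50 µM zinc acetate. The protein was a Ni–NTA-purified transcription factor fused N-terminally to polyhistidine and DsRed, expressed in E. coli BL21-CodonPlus.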
Consider “TGTAATAACGTATATAATTAATCGATCGCGTATAGAAGACCGGAGTCACCTAGTGCAG”, for which the binding signal was 9120 fluorescence intensity (a.u.).

Consider “CGGTAATAATAATAAACAGAGGCTAGCTTGCCTCTTGTCTCGGAGTCACCTAGTGCAG”, for which the binding signal is 3980 fluorescence intensity (a.u.).

On to “GTATCAATCAGAATTTAGGAGACATGTTTAGGGTGAAACACGGAGTCACCTAGTGCAG”, for which the binding signal was 19200 fluorescence intensity (a.u.).

As for “GTATGATTGGTTATGTAAAGTTTGTTTCTTGTTCTAGAGGCGGAGTCACCTAGTGCAG”, the binding signal was 58400 fluorescence intensity (a.u.).

Regarding “CTTGATATAACTGAGGTAGGCGGTCTCCAGAAACCCCAGCCGGAGTCACCTAGTGCAG”, the binding signal is 11700 fluorescence intensity (a.u.).

Turning to “CTAATTAAACAAACACGCGAAATACACGTATATCAAGAAACGGAGTCACCTAGTGCAG”, the binding signal was 5100 fluorescence intensity (a.u.).

With “CAAAATTTGTTAAGCAATTAGTAGGGCTAAATGTTAGGTTCGGAGTCACCTAGTGCAG”, the binding signal was 28500 fluorescence intensity (a.u.).

Consider “CGCACCAATCTCACCACATCAATCCACATGGCGTCGCGTCCGGAGTCACCTAGTGCAG”, for which the binding signal was 5000 fluorescence intensity (a.u.).

In the case of “AAATCCTGATATCTAATCAAAATTTGTTCACAAGCAGCGGCGGAGTCACCTAGTGCAG”, the binding signal was 7900 fluorescence intensity (a.u.).

“AGTTGATTTATCATGGAAAGATAAATTTCAGCATCTCACACGGAGTCACCTAGTGCAG”: the binding signal is 20000 fluorescence intensity (a.u.).

Turning to “TCTCATCCGTCCGTCCATCATCTCATCTAATCTATCCGTCCGGAGTCACCTAGTGCAG”, the binding signal was 3200 fluorescence intensity (a.u.).

Consider “GTAAAATTTGTGAATAATATTACTATCAGTTTGCTGGATTCGGAGTCACCTAGTGCAG”, for which the binding signal is 4250 fluorescence intensity (a.u.).

As for “GCTGTGTGATCGTCATCAATTGATCAGCAGAGTACCGTGGCGGAGTCACCTAGTGCAG”, the binding signal was 6260 fluorescence intensity (a.u.).

For “GTAATTGTTCTTTGATCTAATAAATTACCTGAGTTTTAAACGGAGTCACCTAGTGCAG”, the binding signal is 8650 fluorescence intensity (a.u.).

As for “CATCTCAGTTAATAATTAATGTGCTTTAGGTTACGTATCACGGAGTCACCTAGTGCAG”, the binding signal is 11900 fluorescence intensity (a.u.).

Consider “GAAGTACTAAATTAGTATTGAACAGATGTATTGCACCATACGGAGTCACCTAGTGCAG”, for which the binding signal is 6680 fluorescence intensity (a.u.).

Turning to “AGCAAATGATGATATGTCAAAGAACAAACTCCAAAGTGCGCGGAGTCACCTAGTGCAG”, the binding signal was 6390 fluorescence intensity (a.u.).

“CGTTGACGAATTCAGCCCACATCTGAATTTGGCCTACCCACGGAGTCACCTAGTGCAG”: the binding signal is 6680 fluorescence intensity (a.u.).

On to “TATTACAGTACGTTAACAAAGATTAAACTGAATCTACAATCGGAGTCACCTAGTGCAG”, for which the binding signal was 3210 fluorescence intensity (a.u.).

“GTTCAAAAGATAATTGTGCTGTTTATTGTCCTTTCAGGTTCGGAGTCACCTAGTGCAG”: the binding signal was 4650 fluorescence intensity (a.u.).

Consider “TTGTAGATTTGTAGATGTTACTCTTACATGACTCCTTCCTCGGAGTCACCTAGTGCAG”, for which the binding signal is 4330 fluorescence intensity (a.u.).

Regarding “TGTTAAATGATTTGTTTTCATGCGAAAACATTTTATATGGCGGAGTCACCTAGTGCAG”, the binding signal was 45400 fluorescence intensity (a.u.).

For the sequence “TCTTACTTAATAGCACTAATCTCAAAGTCAATCTAATGGACGGAGTCACCTAGTGCAG”, the binding signal was 3950 fluorescence intensity (a.u.).

For the sequence “TTTAATTGGAGCCTTCGAGGGTAGTCGAGTCAGTCACTTGCGGAGTCACCTAGTGCAG”, the binding signal was 27000 fluorescence intensity (a.u.).

As to “GTTTTATTCTGATTAAATTAAATGCCACAGGGACATTGTCCGGAGTCACCTAGTGCAG”, the binding signal was 9600 fluorescence intensity (a.u.).

Take “TCTGATGTTGCCTTAACTGCATAGCCTGCTTATATGATGGCGGAGTCACCTAGTGCAG”: the binding signal is 4900 fluorescence intensity (a.u.).

As to “CCCTTAAAATCACAAATTAAATTTTGGATAACCCAAAAGCCGGAGTCACCTAGTGCAG”, the binding signal is 9230 fluorescence intensity (a.u.).

Take “ATAATTTATGTGTGACTATCTATCTATCTTTATCTATCTACGGAGTCACCTAGTGCAG”: the binding signal was 7530 fluorescence intensity (a.u.).

As for “GCTTAATTGAAGGAGCCATGGCAGCTGTCCTCTCCCGCCGCGGAGTCACCTAGTGCAG”, the binding signal is 53200 fluorescence intensity (a.u.).

As to “TCACTATAATTTTGGTCAAATTCAACTATATGCTGGGACACGGAGTCACCTAGTGCAG”, the binding signal was 7080 fluorescence intensity (a.u.).

For “TGCCATTAACAATCACATAATTCCAAGAAATGCTATCAACCGGAGTCACCTAGTGCAG”, the binding signal was 8190 fluorescence intensity (a.u.).

In the case of “GAGAGATTGAGTTTTAAATTGAACGTTATGGAAGGATGGACGGAGTCACCTAGTGCAG”, the binding signal was 33700 fluorescence intensity (a.u.).

“ATAGTCAATTTAATACTAGTTAAATCATACAATAGTTACCCGGAGTCACCTAGTGCAG”: the binding signal was 12800 fluorescence intensity (a.u.).

As to “GCTTCCTTTGATTTGTAGAGAAAACGAAGAAAGCAATAGGCGGAGTCACCTAGTGCAG”, the binding signal was 8870 fluorescence intensity (a.u.).

In the case of “TGGCTTTTATGATTGCCACACCTCAACCGGAATATATGCTCGGAGTCACCTAGTGCAG”, the binding signal is 9330 fluorescence intensity (a.u.).

Turning to “TGAAAATTTCAATCCTTTCTTGTCAGCATAGTTCTTTCTGCGGAGTCACCTAGTGCAG”, the binding signal is 12400 fluorescence intensity (a.u.).

With “TCAAACTTAATTTTGAAGTTTATTTTAAGATATTTTCAACCGGAGTCACCTAGTGCAG”, the binding signal was 5390 fluorescence intensity (a.u.).

“CACTATAAATTATCACCACCTCATTCCCGCCATGTCTCACCGGAGTCACCTAGTGCAG”: the binding signal is 10200 fluorescence intensity (a.u.).

For “AATTTTAATTATCTCTAAATTGTATTCCTATATGGACTCTCGGAGTCACCTAGTGCAG”, the binding signal is 24700 fluorescence intensity (a.u.).

Take “TTGAACTGCCCATAATCATTTATAAATTTAAACTTCTTGACGGAGTCACCTAGTGCAG”: the binding signal is 4440 fluorescence intensity (a.u.).

Regarding “CCCCGGCTGATTAATCTGCCACTTATTACTATCACTGATTCGGAGTCACCTAGTGCAG”, the binding signal is 13200 fluorescence intensity (a.u.).

Consider “TTGACAGAATGACAGGCTTTATCAGCCACACATATACATACGGAGTCACCTAGTGCAG”, for which the binding signal was 12400 fluorescence intensity (a.u.).

As to “CCAGTTGAATCAATACATTGATTATTACTACCTCCATATTCGGAGTCACCTAGTGCAG”, the binding signal was 5530 fluorescence intensity (a.u.).

In the case of “ATAAACCGCACCCAAAATTTAAATTTTAAAGCATAGTTATCGGAGTCACCTAGTGCAG”, the binding signal is 3520 fluorescence intensity (a.u.).

As to “ATAATAGATGAGATGAGAAGAGATACCATCTCTAGTAATCCGGAGTCACCTAGTGCAG”, the binding signal is 9020 fluorescence intensity (a.u.).

On to “AGCCTAATTAATTTGTCATTAGCAAATGTTTACTGTAGCACGGAGTCACCTAGTGCAG”, for which the binding signal was 57000 fluorescence intensity (a.u.).

On to “TCCATGATTTGTCACGTGGGTGTTCAGTGCTATAGCTCCTCGGAGTCACCTAGTGCAG”, for which the binding signal was 27600 fluorescence intensity (a.u.).

Consider “AACAAATGATGAAATTGCTAACACCTAGATGGCCATGTTCCGGAGTCACCTAGTGCAG”, for which the binding signal was 8590 fluorescence intensity (a.u.).

Regarding “GAACATTTCTTCTCTCCAATCAAATGTACGGACGGCTAAACGGAGTCACCTAGTGCAG”, the binding signal is 3260 fluorescence intensity (a.u.).

Take “CCATGTTTACAAAATAAATTAACATAGCACATAATTTCATCGGAGTCACCTAGTGCAG”: the binding signal is 4240 fluorescence intensity (a.u.).

For the sequence “TGCCTAATTGGTTTCCCAGCCTTGACGAGCTTCCTCGAGTCGGAGTCACCTAGTGCAG”, the binding signal was 42600 fluorescence intensity (a.u.).

Turning to “TTCTGATTAACTGTCTGCTACTCTTGAAAGCTGCACTCGACGGAGTCACCTAGTGCAG”, the binding signal was 34200 fluorescence intensity (a.u.).

“TTGCCATCATAATCAATTGTGATCCTTCTCTGTATCCCTACGGAGTCACCTAGTGCAG”: the binding signal is 4630 fluorescence intensity (a.u.).

For the sequence “TTAAATTTAAATTTGAGATTGATTTTGAGATATTTTCAACCGGAGTCACCTAGTGCAG”, the binding signal is 38200 fluorescence intensity (a.u.).
